{"source": "PubChem BioAssay AID445", "about": "(National Center for Advancing Translational Sciences (NCATS), 2006)", "note": "In all, about 110,000 compounds went through this assay and about 40 (0.04%) were called active. Inconclusive means that the source gave no clear call. Such entries were picked first, then a sample of the others. The call rests on the fitted dose curve; in most records, active means well fitted curve in the direction sought with a large enough effect in the signal ratio (not every such curve was filed as active); inconclusive means small, poorly fitted or top-dose-only effect, or a change in a side signal; inactive means flat fitted curve, though single readings scatter; the % refers to the signal ratio. Potencies of inconclusive entries are doubtful fits and often do not repeat. Potency means the concentration at half of the fitted maximal effect."}
{"test": "IkB Signaling;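 on IkBa stabilization activation: 0% = basal untreated cells and 100% = reference inhibitor full response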", "conditions": "ABC-DLBCL IkBa-CBG/CBR dual luciferase ratio (green luciferase fused to IkBa over red control in OCI-Ly3 lymphoma cells), 4 h; IkBa stabilization activation: at 57.1 µM (top of the series), scaled: untreated 0%, proteasome inhibitor 100% unless noted", "outline": "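Curves were fitted separately to fusion (green), unfused (red) and ratio luminescence, then classed by r2, magnitude and activity. Cells: OCI-Ly3, 4 h compound plus doxycycline at 37C; 10 uM MG-132 defined full response.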"}
{"smiles": "Cn1ncc2c(NCc3ccc(Cl)cc3)ncnc21", "IkBa stabilization activation": "inactive: -3.91%"}
{"smiles": "Cc1cc(C)c2[nH]c(=O)c(CN(Cc3ccco3)C(=O)C3CCCO3)cc2c1", "note": "(centres undefined)", "IkBa stabilization activation": "inactive: 2.18%"}
{"smiles": "Cc1ccc(Cn2c(=O)n(CC3CCC(C(=O)N4CCC(C)CC4)CC3)c(=O)c3sccc32)cc1", "note": "(centres undefined)", "IkBa stabilization activation": "inconclusive: 1.93% [signal inhibitor]"}
{"smiles": "Cc1oc2c(c1C(=O)Nc1ccccc1Br)C1=NCCN1C=N2", "IkBa stabilization activation": "inactive: -1.84%"}
{"smiles": "COc1cccc(CNC(=O)c2sc3nc4n(c(=O)c3c2C)CCC4)c1", "IkBa stabilization activation": "inactive: -0.678%"}
{"smiles": "Cc1cc(O)c2c(-c3ccccc3)cc(=O)oc2c1", "IkBa stabilization activation": "inconclusive: 5.35% [signal inhibitor]"}
{"smiles": "CCOC(=O)c1ccccc1NC(=O)c1cc2c(s1)-c1c(C)cccc1OC2", "IkBa stabilization activation": "inactive: 14.8%"}
{"smiles": "CCOC(=O)C1(C)C=C(Nc2ccc(Br)cc2)C(=O)N1c1ccccc1", "note": "(centres undefined)", "IkBa stabilization activation": "inconclusive: 8.67% [signal inhibitor]"}
{"smiles": "CCn1c(=NC(=O)c2ccc3c(c2)OCCO3)sc2c(C)ccc(OC)c21", "IkBa stabilization activation": "inactive: -1.97%"}
{"smiles": "C=C(C)COc1ccc(-c2[nH]ncc2-c2ccccc2OC)c(O)c1", "IkBa stabilization activation": "inconclusive: 7.26% [signal inhibitor]"}
{"smiles": "CC(=O)N1c2c(cc(Br)cc2S(=O)(=O)N2CCN(C(=O)c3ccco3)CC2)CC1C", "note": "(centres undefined)", "IkBa stabilization activation": "inactive: 2.3%"}
{"smiles": "Cc1ccc(C)c2[nH]c(=O)c(CN(Cc3ccco3)S(=O)(=O)c3ccc4c(c3)OCCO4)cc12", "IkBa stabilization activation": "inconclusive: 1.52% [signal inhibitor]"}
{"smiles": "Cc1nn(C(C)C(=O)NC2CCCCC2)c(=O)c2c1sc1ccccc12", "note": "(centres undefined)", "IkBa stabilization activation": "inconclusive: 0.763% [signal inhibitor]"}
{"smiles": "COc1ccc(CC(=O)NC2CC(=O)N(c3cccc(F)c3)C2)cc1", "note": "(centres undefined)", "IkBa stabilization activation": "inconclusive: 2.31% [signal inhibitor]"}
{"smiles": "Cc1ccc(-c2nnc(Nc3ccc(Br)cc3)c3ccccc23)cc1S(=O)(=O)N1CCN(C)CC1", "IkBa stabilization activation": "inconclusive: 11.8% [signal inhibitor]"}
{"smiles": "COc1ccc(CCNC(=O)Cc2c(C)c3c(cc(C)c4c(C)coc43)oc2=O)cc1OC", "IkBa stabilization activation": "inactive: 0.457%"}
{"smiles": "CCN(C(=O)C(=O)Nc1ccc2nc3n(c(=O)c2c1)CCCCC3)c1ccc(F)cc1", "IkBa stabilization activation": "inconclusive: 3.54% [signal inhibitor]"}
{"smiles": "CCN(c1ccccc1)C(CNS(=O)(=O)c1ccccc1)c1ccccc1", "note": "(centres undefined)", "IkBa stabilization activation": "inactive: 1.68%"}
{"smiles": "Cc1c(C(=O)N(Cc2ccc(N(C)C)cc2)C2CCS(=O)(=O)C2)oc2ccccc12", "note": "(centres undefined)", "IkBa stabilization activation": "inconclusive: 2.31% [signal inhibitor]"}
{"smiles": "COc1cc(C(=O)CC2(O)C(=O)N(Cc3ccccc3Cl)c3ccccc32)cc(OC)c1OC", "note": "(centres undefined)", "IkBa stabilization activation": "inconclusive: 11.1% [signal inhibitor]"}
{"smiles": "Cc1ccc2sc(N(Cc3cccnc3)C(=O)CCOc3ccccc3)nc2c1C", "IkBa stabilization activation": "inconclusive: 3.37% [signal inhibitor]"}
{"smiles": "O=C(c1ccc2c(c1)N(Cc1ccccc1)C(=O)c1ccccc1S2(=O)=O)N1CCN(c2ccccc2)CC1", "IkBa stabilization activation": "inactive: -1.5%"}
{"smiles": "Cc1ccccc1-c1nc(CS(=O)CC(=O)N2CCN(c3cc(Cl)ccc3C)CC2)c(C)o1", "note": "(centres undefined)", "IkBa stabilization activation": "inconclusive: -4.3% [signal inhibitor]"}
{"smiles": "CCCCCCCCCC(=O)O[C@H](CC(=O)O)C[N+](C)(C)C", "IkBa stabilization activation": "inactive: 0.364%"}
{"smiles": "O=S(=O)(O)CCCc1cccc2ccccc12", "IkBa stabilization activation": "inactive: -0.691% [at 11.4 µM, scaled: untreated 0%, proteasome inhibitor 100%]"}
{"smiles": "Cn1c(=O)c(-c2cccc(F)c2)nc2cncnc21", "IkBa stabilization activation": "inactive: -2% [at 11.4 µM, scaled: untreated 0%, proteasome inhibitor 100%]"}
{"smiles": "COc1ccc(Cn2nnc3c(=O)[nH]c(C4CCCN(C(=O)c5ccc(C)cc5)C4)nc32)cc1", "note": "(centres undefined)", "IkBa stabilization activation": "inactive: 0.623%"}
{"smiles": "CCOc1ccc(OCC)c(NC(=O)CSc2nc3cccnc3n2C)c1", "IkBa stabilization activation": "inconclusive: 6.58% [signal inhibitor]"}
{"smiles": "COc1ccc(CCNC(=O)Cn2c(=O)n(-c3ccc(C)c(C)c3)c(=O)c3c(C)c(C)sc32)cc1OC", "IkBa stabilization activation": "inconclusive: 2.32% [signal inhibitor]"}
{"smiles": "O=C(Cn1c2c(c(-c3ccccc3)cc1=O)CCCC2)N1CCCCCC1", "IkBa stabilization activation": "inconclusive: -3.51% [signal inhibitor]"}
{"smiles": "CCc1ccccc1NC(=O)Cn1ccn(-c2cc(C)cc(C)c2)c(=O)c1=O", "IkBa stabilization activation": "inactive: 2.48%"}
{"smiles": "COc1cccc(-c2nn(C)c3sc(C(=O)NCc4ccccn4)cc23)c1", "IkBa stabilization activation": "inconclusive: 3.69% [signal inhibitor]"}
{"smiles": "COc1ccc(OC)c(C(=O)c2c(N)c(-c3nc(-c4ccc(C)c(C)c4)cs3)c3ccccn23)c1", "IkBa stabilization activation": "inconclusive: 2.72% [signal inhibitor]"}
{"smiles": "CC1=CC(=O)C2=C(C)CC[C@@H]3[C@H](OC(=O)[C@H]3C)[C@H]12", "IkBa stabilization activation": "inactive: 0.84% [at 11.4 µM, scaled: untreated 0%, proteasome inhibitor 100%]"}
{"smiles": "Cc1cc(C)c2nc(N3CCCC(C(=O)NCc4cccc(Br)c4)C3)sc2c1", "note": "(centres undefined)", "IkBa stabilization activation": "inconclusive: 0.909% [signal inhibitor]"}
{"smiles": "CCN(C(=O)c1cc2cc3ccc(C)cc3nc2o1)c1ccc(OC)cc1", "IkBa stabilization activation": "inconclusive: 0.899% [signal inhibitor]"}
{"smiles": "CCOc1ccccc1N1CCN(C(=O)c2cc3c(s2)CCC3)CC1", "IkBa stabilization activation": "inconclusive: 2.6% [signal inhibitor]"}
{"smiles": "COc1ccccc1N(CC(=O)NC1CCCC1)C(=O)c1csnn1", "IkBa stabilization activation": "inconclusive: 10.3% [signal inhibitor]"}
{"smiles": "Cc1ccc(NC(=O)c2oc3ccc(S(=O)(=O)N4CCCCCC4)cc3c2C)cc1Cl", "IkBa stabilization activation": "inconclusive: -1.73% [signal inhibitor]"}
{"smiles": "CCOC(=O)c1ccc(N2CCN(c3ccccc3F)CC2)c(NC(=O)Nc2ccc(Cl)c(Cl)c2)c1", "IkBa stabilization activation": "inconclusive: 2.84% [signal inhibitor]"}
{"smiles": "CCSC1=C(C#N)C(c2cccc(Br)c2)CC(=O)N1", "note": "(centres undefined)", "IkBa stabilization activation": "inconclusive: 2.73% [signal inhibitor]"}
{"smiles": "CCCN1C(=O)c2[nH]nc(-c3ccccc3O)c2C1c1ccc(OCc2ccccc2)c(OCC)c1", "note": "(centres undefined)", "IkBa stabilization activation": "inconclusive: -3.71% [signal inhibitor]"}
{"smiles": "Cc1noc(C)c1COc1cccc(C(=O)N2CCN(C/C=C/c3ccccc3)CC2)c1", "IkBa stabilization activation": "inconclusive: 4.7% [signal inhibitor]"}
{"smiles": "Fc1ccc(-c2nc3nc4ccccc4nc3n2Cc2ccco2)cc1", "Potency": "inconclusive: 25.1 µM [signal inhibitor, partial curve]"}
